According to the supplement of paper PMC8728848:
This is one part of the list.

Assays:
Assay in all cases: glycan array binding signal (z-score within array); higher = stronger binding
Conditions in all cases: glycan notation: IUPAC condensed, linker removed
[1] = target: Neu5Ac(a2-3)Gal(b1-3)GalNAc
How it was run: (§1)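 Glycan array data came from 3228 arrays in the Consortium for Functional Glycomics database, and only arrays with an available protein sequence were kept. Glycan names were put into IUPAC-condensed notation, and columns mapping to the same glycan were averaged. The binding signal is a within-array Z-score, averaged across arrays of one protein sequence run at different concentrations or buffers and across linkers. A negative Z-score can be read as non-binding.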

[2] = target: Neu5Ac(a2-3)Gal(b1-3)GalNAc(b1-3)Gal(a1-4)Gal(b1-4)Glc
How it was run: as §1

[3] = target: Neu5Ac(a2-3)Gal(b1-3)GalNAc(b1-4)[Neu5Ac(a2-3)]Gal(b1-4)Glc
How it was run: as §1

[4] = target: Neu5Ac(a2-3)Gal(b1-3)GalNAc(b1-4)[Neu5Ac(a2-8)Neu5Ac(a2-3)]Gal(b1-4)Glc
How it was run: as §1

[5] = target: Neu5Ac(a2-3)Gal(b1-3)GalNAc6S
How it was run: as §1

[6] = target: Neu5Ac(a2-3)Gal(b1-3)GlcNAc
How it was run: as §1

[7] = target: Neu5Ac(a2-3)Gal(b1-3)GlcNAc(b1-2)Man
How it was run: as §1

[8] = target: Neu5Ac(a2-3)Gal(b1-3)GlcNAc(b1-2)Man(a1-3)[GlcNAc(b1-4)][Neu5Ac(a2-3)Gal(b1-3)GlcNAc(b1-2)Man(a1-6)]Man(b1-4)GlcNAc(b1-4)GlcNAc
How it was run: as §1

[9] = target: Neu5Ac(a2-3)Gal(b1-3)GlcNAc(b1-2)Man(a1-3)[Neu5Ac(a2-3)Gal(b1-3)GlcNAc(b1-2)Man(a1-6)]Man(b1-4)GlcNAc(b1-4)GlcNAc
How it was run: as §1

[10] = target: Neu5Ac(a2-3)Gal(b1-3)GlcNAc(b1-2)[Neu5Ac(a2-3)Gal(b1-3)GlcNAc(b1-4)]Man(a1-6)[Neu5Ac(a2-3)Gal(b1-3)GlcNAc(b1-2)Man(a1-3)]Man(b1-4)GlcNAc(b1-4)GlcNAc
How it was run: as §1

[11] = target: Neu5Ac(a2-3)Gal(b1-3)GlcNAc(b1-3)Gal(b1-3)GlcNAc
How it was run: as §1

[12] = target: Neu5Ac(a2-3)Gal(b1-3)GlcNAc(b1-3)Gal(b1-4)GlcNAc
How it was run: as §1

[13] = target: Neu5Ac(a2-3)Gal(b1-3)GlcNAc(b1-3)GalNAc
How it was run: as §1

[14] = target: Neu5Ac(a2-3)Gal(b1-3)GlcNAc(b1-4)Gal(b1-4)Glc
How it was run: as §1

[15] = target: Neu5Ac(a2-3)Gal(b1-3)GlcNAc(b1-6)GalNAc
How it was run: as §1

[16] = target: Neu5Ac(a2-3)Gal(b1-3)GlcNAc6S
How it was run: as §1

[17] = target: Neu5Ac(a2-3)Gal(b1-3)[Fuc(a1-4)]GlcNAc
How it was run: as §1

[18] = target: Neu5Ac(a2-3)Gal(b1-3)[Fuc(a1-4)]GlcNAc(b1-3)Gal(b1-3)[Fuc(a1-4)]GlcNAc
How it was run: as §1

[19] = target: Neu5Ac(a2-3)Gal(b1-3)[Fuc(a1-4)]GlcNAc(b1-3)Gal(b1-4)[Fuc(a1-3)]GlcNAc
How it was run: as §1

[20] = target: Neu5Ac(a2-3)Gal(b1-3)[GlcNAc(b1-6)]GalNAc
How it was run: as §1

[21] = target: Neu5Ac(a2-3)Gal(b1-3)[Neu5Ac(a2-6)]GalNAc
How it was run: as §1

[22] = target: Neu5Ac(a2-3)Gal(b1-3)[Neu5Ac(a2-6)]GlcNAc(b1-3)[Fuc(a1-3)[Gal(b1-4)]GlcNAc(b1-6)]Gal(b1-4)Glc
How it was run: as §1

B1: rEtpA (Escherichia coli) (protein)
chain: MNRIYKLKFDKRRNELVVVSEITTGVGNAKATGSVEGEKSPRRGVRAMALSLLSGMMIMAHPAMSANLPTGGQIVAGSGSIQTPSGNQMNIHQNSQNMVANWNSFDIGKGNTVQFDQPSSSAVALNRVVGGGESQIMGNLKANGQVFLVNPNGVLFGEGASVSTSGFVASTRDIKNDDFMNRRYTFSGGQKAGAAIVNQGELTTNAGGYIVLAADRVSNSGTIRTPGGKTVLAASERITLQLDNGGLMSVQVTGDVVNALVENRGLVSARDGQVYLTALGRGMLMNTVLNVSGVVEASGMHRQDGNIVLDGGDSGVVHLSGTLQADNASGQGGKVVVQGKNILLDKGSNITATGGQGGGEVYVGGGWQGKDSNIRNADKVVMQGGARIDVSATQQGNGGTAVLWSDSYTNFHGQISAKGGETGGNGGRVETSSHGNLQAFGTVSASAKKGKAGNWLLDSADITIVNGSNVSKTETTQSPPHTQFAPTAAGSAVSNTSINNRLNNGTSVTILTHRTRTGTAQGGNITVNAAINKSNGSDVNLTLQAGGNITVNNSITSTEGKLNVNLSGARTSNGSITISNNANITTNGGDITVGTTNTSNRVNISINNTTLNASNGNIQLTGTGTDSGILFAGNNRLTASNIALTGNSTSGNAINLTGTATLNATNNITLTGSSTSGNAINLKGNNTLTASNITLTGESTSGNAINLTDTTGTTTLNATNNITMQGTRVQIKHSNITAGNFALNATVAGSEISNTTLTATNNINLAAKTNSASSGVYLKDARITSTNGSITANGTATANGKATHLDGNVTLNASNGRIKLTGNGHGSASGILFAGNNRLTASNIALTGNSTSGNAINLTGTATLNATNDITLTGSSTSGNAINLTGTATLNATNNITLTGSSTSGNAINLKGNNTLTASNITLTGESTSGNAINLTDTTGTTTLNATNNITMQGTRVQIKHSNITAGNFALNATVAGSEISNTTLTATNNINLAAKTNSASSGVYLKDARITSTNGSITANGTATANGKATHLDGNVTLNASNGRIKLTGNGHGSASGILFAGNNRLTASNIALTGNSTSGNAINLTGTATLNATNDITLTGSSTSGNAINLTGTATLNATNNITLTGSSTSGNAINLKGNNTLTASNITLTGESTSGNAINLTDTTGTTTLNATNNITMQGTRVQIKHSNITAGNFALNATVAGSEISNTTLTATNNINLAAKTNSASSGVYLKDARITSTNGSITANGTATANGKATHLDGNVTLNASNGRIKLTGNGHGSASGILFAGNNRLTASNIALTGNSTSGNAINLTGTATLNATNDITLTGSSTSGNAINLTGTATLNATNNITLTGSSTSGNAINLKGNNTLTASNITLTGESTSGNAINLTDTTGTTTLNATNNITMQGTRVQIKHSNITAGNFALNATVAGSEISNTTLTATNNINLAAKTNSASSGVYLKDARITSTNGSITTNGTATANGKATHLDGNVTLNASNGRIKLTGNGHGSASGILFAGNNRLTASNIALTGNSTSGNAINLTGTATLNATNDITLTGSSTSGNAINLTGTATLNATNNITLTGSSTSGNAINLKGNNTLTASNITLTGESTSGNAINLTDTTGTTTLNATNNITMQGTRVQIKHSNITAGNFALNATVAGSEISNTTLTATNNINLAAKTNSASSGVYLKDARITSTNGSITANGTAPANDNATYLDGNVTLNASNGSIKLTGNGNGSTSGILFAGNNTLTASNITLTGNSEVYWQKLGPEQKLISEEDLNSAVDHHHHHH
- glycan array binding signal (z-score) [1]: 0.894
- glycan array binding signal (z-score) [2]: -0.428
- glycan array binding signal (z-score) [3]: -0.371
- glycan array binding signal (z-score) [4]: 0.502
- glycan array binding signal (z-score) [5]: -0.179
- glycan array binding signal (z-score) [6]: -0.265
- glycan array binding signal (z-score) [7]: -0.259
- glycan array binding signal (z-score) [8]: -0.232
- glycan array binding signal (z-score) [9]: 0.384
- glycan array binding signal (z-score) [10]: -0.163
- glycan array binding signal (z-score) [11]: -0.489
- glycan array binding signal (z-score) [12]: -0.419
- glycan array binding signal (z-score) [13]: -0.3
- glycan array binding signal (z-score) [14]: -0.047
- glycan array binding signal (z-score) [15]: -0.402
- glycan array binding signal (z-score) [16]: 0.674
- glycan array binding signal (z-score) [17]: -0.378
- glycan array binding signal (z-score) [18]: -0.206
- glycan array binding signal (z-score) [19]: -0.21
- glycan array binding signal (z-score) [20]: -0.329
- glycan array binding signal (z-score) [21]: -0.002
- glycan array binding signal (z-score) [22]: -0.356
